Patent US20080311132

Biological target: C3b, P01024
Sequence (P01024 whole entry, looked up): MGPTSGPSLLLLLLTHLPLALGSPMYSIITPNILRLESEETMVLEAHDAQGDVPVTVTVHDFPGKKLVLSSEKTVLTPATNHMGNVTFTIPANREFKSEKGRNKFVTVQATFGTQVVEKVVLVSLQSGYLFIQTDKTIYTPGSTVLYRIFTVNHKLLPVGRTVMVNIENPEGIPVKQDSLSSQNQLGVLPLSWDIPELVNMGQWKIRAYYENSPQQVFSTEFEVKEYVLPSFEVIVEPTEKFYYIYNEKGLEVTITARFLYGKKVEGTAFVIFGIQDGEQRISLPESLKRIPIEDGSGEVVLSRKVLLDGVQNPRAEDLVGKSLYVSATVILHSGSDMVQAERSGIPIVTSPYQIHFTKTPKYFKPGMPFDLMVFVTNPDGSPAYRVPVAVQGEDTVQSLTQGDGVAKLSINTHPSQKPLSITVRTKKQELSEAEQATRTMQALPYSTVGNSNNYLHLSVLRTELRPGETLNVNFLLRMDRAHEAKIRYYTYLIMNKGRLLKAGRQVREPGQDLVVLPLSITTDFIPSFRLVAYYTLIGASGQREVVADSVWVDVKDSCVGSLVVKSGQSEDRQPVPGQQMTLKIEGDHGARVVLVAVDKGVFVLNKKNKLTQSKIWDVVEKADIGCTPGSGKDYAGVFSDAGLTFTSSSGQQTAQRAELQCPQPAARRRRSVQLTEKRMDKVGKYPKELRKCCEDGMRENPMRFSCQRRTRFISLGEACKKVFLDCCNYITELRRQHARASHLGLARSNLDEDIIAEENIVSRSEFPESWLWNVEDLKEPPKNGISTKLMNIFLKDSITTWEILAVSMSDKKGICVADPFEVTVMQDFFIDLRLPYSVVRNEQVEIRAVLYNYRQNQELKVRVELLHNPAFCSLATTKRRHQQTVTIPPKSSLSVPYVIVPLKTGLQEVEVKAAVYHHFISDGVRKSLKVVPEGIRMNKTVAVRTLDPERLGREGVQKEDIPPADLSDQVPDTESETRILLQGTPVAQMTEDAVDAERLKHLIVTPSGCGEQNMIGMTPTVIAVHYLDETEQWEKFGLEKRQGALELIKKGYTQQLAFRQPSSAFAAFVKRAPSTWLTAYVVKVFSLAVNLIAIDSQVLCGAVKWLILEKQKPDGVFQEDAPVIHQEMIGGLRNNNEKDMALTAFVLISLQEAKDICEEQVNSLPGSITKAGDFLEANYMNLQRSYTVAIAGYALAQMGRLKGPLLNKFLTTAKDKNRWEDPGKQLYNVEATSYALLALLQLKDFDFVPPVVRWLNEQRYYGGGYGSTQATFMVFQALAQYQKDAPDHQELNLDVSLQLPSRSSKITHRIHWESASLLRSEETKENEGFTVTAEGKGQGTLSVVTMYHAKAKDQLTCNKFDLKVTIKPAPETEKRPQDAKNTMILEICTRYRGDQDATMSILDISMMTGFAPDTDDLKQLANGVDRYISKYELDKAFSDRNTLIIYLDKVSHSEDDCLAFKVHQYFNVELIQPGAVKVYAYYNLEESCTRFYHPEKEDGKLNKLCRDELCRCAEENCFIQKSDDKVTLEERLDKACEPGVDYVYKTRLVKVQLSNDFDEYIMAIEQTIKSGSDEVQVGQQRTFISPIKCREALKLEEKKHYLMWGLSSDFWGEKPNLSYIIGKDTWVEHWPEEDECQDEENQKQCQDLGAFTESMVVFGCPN

B1: Factor B (protein)
chain: TPWSLARPQGSCSLEGVEIKGGSFRLLQEGQALEYVCPSGFYPYPVQTRTCRSTGSWSTLKTQDQKTVRKAECRAIHCPRPHDFENGEYWPRSPYYNVSDEISFHCYDGYTLRGSANRTCQVNGRWSGQTAICDNGAGYCSNPGIPIGTRKVGSQYRLEDSVTYHCSRGLTLRGSQRRTCQEGGSWSGTEPSCQDSFMYDTPQEVAEAFLSSLTETIEGVDAEDGHGPGEQQKRKIVLDPSGSMNIYLVLDGSDSIGASNFTGAKKCLVNLIEKVASYGVKPRYGLVTYATYPKIWVKVSEADSSNADWVTKQLNEINYEDHKLKSGTNTKKALQAVYSMMSWPDDVPPEGWNRTRHVIILMTDGLHNMGGDPITVIDEIRDLLYIGKDRKNPREDYLDVYVFGVGPLVNQVNINALASKKDNEQHVFKVKDMENLEDVFYQMIDESQSLSLCGMVWEHRKGTDYHKQPWQAKISVIRPSKGHESCMGAVVSEYFVLTAAHCFTVDDKEHSIKVSVGGEKRDLEIEVVLFHPNYNINGKKEAGIPEFYDYDVALIKLKNKLKYGQTIRPICLPCTEGTTRALRLPPTTTCQQQKEELLPAQDIKALFVSEEEKKLTRKEVYIKNGDKKGSCERDAQYAPGYDKVKDISEVVTPRFLCTGGVSPYADPNTCRGDSGGPLIVHKRSRFIQVGVISWGVVDVCKNQKRQKQVPAHARDFHINLFQVLPWLKEKLQDEDLGFL
  Factor B activation (cleavage of factor B into Bb and Ba by factor D, SDS-PAGE): Factor B was activated very rapidly in the presence of Human C3
  Factor B cleavage time course (convertase formation): C3b formed a convertase very efficiently
